Laboratory results from US20210380701A1 (IGM BIOSCIENCES, published 2021).

B1: PD-L1-IgM, hexameric (transfected without J-chain) (Fc fusion)
chain: [omitted - about 200 residues]IAELPPKVSVFVPPRDGFFGNPRKSKLICQATGFSPRQIQVSWLREGKQVGSGVTTDQVQAEAKESGPTTYKVTSTLTIKESDWLSQSMFTCRVDHRGLTFQQNASSMCVPDQDTAIRVFAIPPSFASIFLTKSTKLTCLVTDLTTYDSVTISWTRQNGEAVKTHTNISESHPNATFSAVGEASICEDDWNSGERFTCTVTHTDLASSLKQTISRPKGVALHRPDVYLLPPAREQLNLRESATITCLVTGFSPADVFVQWMQRGQPLSPEKYVTSAPMPEPQAPGRYFAHSILTVSEEEWNTGETYTCVVAHEALPNRVTERTVDKSTGKPTLYNVSLVMSDTAGTCY
B2: PD-L1-H-IgM, hexameric (transfected without J-chain) (Fc fusion)
chain: [omitted - about 200 residues]EPKSSDKTHTCPPCPAPDQDTAIRVFAIPPSFASIFLTKSTKLTCLVTDLTTYDSVTISWTRQNGEAVKTHTNISESHPNATFSAVGEASICEDDWNSGERFTCTVTHTDLASSLKQTISRPKGVALHRPDVYLLPPAREQLNLRESATITCLVTGFSPADVFVQWMQRGQPLSPEKYVTSAPMPEPQAPGRYFAHSILTVSEEEWNTGETYTCVVAHEALPNRVTERTVDKSTGKPTLYNVSLVMSDTAGTCY

Target: PD-1 (full-length PD-1 receptor with a small beta-gal fragment fused to its C-terminus, stably expressed on … (UniProt Q15116))
Assay: cell-based or functional assay

Binder | EC50 in PD-1 Reporter Assay
B1 | 0.013 nM
B2 | 0.016 nM
